Data from PMC9911399, “Two distinct binding modes provide the RNA-binding protein RbFox with extraordinary sequence specificity”.
Numbering of substitutions follows the chain as printed; changes in the protein carry UniProt numbers. The list shows a part of the results.

T1: RBFOX1 RRM (Homo sapiens, UniProt Q9NWB1 109-208)
T1 sequence: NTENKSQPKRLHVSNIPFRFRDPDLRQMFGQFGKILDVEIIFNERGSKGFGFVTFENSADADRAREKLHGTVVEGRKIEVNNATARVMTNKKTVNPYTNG

B1: GUCCGGG (DNA:RNA)
RNA: GGGAGACCGGAAUUCAGAUUGUCCGUCCGGGUUAAAUCCCGUCGUAGCCACCA
DNA 1: CAATCTGAATTCCGGTCTCCC
DNA 2: TGGTGGCTACGACGGGATT
B2: GGAAGCG (DNA:RNA)
RNA: B1 RNA with U26G, C27A, C28A, G30C
DNA 1: CAATCTGAATTCCGGTCTCCC
DNA 2: TGGTGGCTACGACGGGATT
B3: AUGUCUU (DNA:RNA)
RNA: B1 RNA with G25A, C27G, C28U, G29C, G30U, G31U
DNA 1: CAATCTGAATTCCGGTCTCCC
DNA 2: TGGTGGCTACGACGGGATT
B4: GUCGAUC (DNA:RNA)
RNA: B1 RNA with C28G, G29A, G30U, G31C
DNA 1: CAATCTGAATTCCGGTCTCCC
DNA 2: TGGTGGCTACGACGGGATT
B5: UCUGGCC (DNA:RNA)
RNA: B1 RNA with G25U, U26C, C27U, C28G, G30C, G31C
DNA 1: CAATCTGAATTCCGGTCTCCC
DNA 2: TGGTGGCTACGACGGGATT
B6: AUUUCUA (DNA:RNA)
RNA: B1 RNA with G25A, C27U, C28U, G29C, G30U, G31A
DNA 1: CAATCTGAATTCCGGTCTCCC
DNA 2: TGGTGGCTACGACGGGATT
B7: AGUUGGU (DNA:RNA)
RNA: B1 RNA with G25A, U26G, C27U, C28U, G31U
DNA 1: CAATCTGAATTCCGGTCTCCC
DNA 2: TGGTGGCTACGACGGGATT
B8: UGCCGAU (DNA:RNA)
RNA: B1 RNA with G25U, U26G, G30A, G31U
DNA 1: CAATCTGAATTCCGGTCTCCC
DNA 2: TGGTGGCTACGACGGGATT
B9: CCAAGCU (DNA:RNA)
RNA: B1 RNA with G25C, U26C, C27A, C28A, G30C, G31U
DNA 1: CAATCTGAATTCCGGTCTCCC
DNA 2: TGGTGGCTACGACGGGATT

The binders below were run against T1, RBFOX1 RRM (assay: EMSA; HiTS-Eq, 1 nM pool, 10 min; buffer printed only for the single-RNA assays: 10 mM Tris pH 7.5, 150 mM NaCl, 3.4 mM EDTA, 0.001% NP-40, 30 C). Conditions: tags: His6 N-terminal (pET28a); label: 5' 32P.
How it was run: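 Relative association constants, normalised to the cognate motif, were derived by comparing read counts of each RNA species with those of the control reaction. The RNA sequenced was the free fraction, separated by 8% native PAGE after a 10 min equilibration in 50 µL of 1 nM 5′-radiolabelled RNA (7 randomized nucleotides) with increasing concentrations of purified wild-type or mutant RbFox RRM.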

First: B1
Second: B2
The binding signal of the first is lower: 0.00708 KA relative to UGCAUGU for the first, 0.0177 KA relative to UGCAUGU for the second.

First: B3
Second: B4
The binding signal of the first is lower: 0.00976 KA relative to UGCAUGU for the first, 0.0161 KA relative to UGCAUGU for the second.

Compared with B5, B6 is lower in binding signal: 0.0211 KA relative to UGCAUGU for the first, 0.00442 KA relative to UGCAUGU for the second.

First: B7
Second: B8
The binding signal of the first is lower: 0.016 KA relative to UGCAUGU for the first, 0.025 KA relative to UGCAUGU for the second.

With B9 the binding signal was 0.0041 KA relative to UGCAUGU.
